Reference: PubChem BioAssay AID1159614 (National Center for Advancing Translational Sciences (NCATS), 2016)
Out of some 45,000 compounds screened, about 65 (0.1%) were called active. Calls come from the whole dose curve; as a rule, active = well fitted activation curve with a large enough effect; inconclusive = small, poorly fitted or top-dose-only effect; inactive = no such curve, though single readings can be large or run the other way. The list shows a part of the results.

Target: Galactocerebrosidase (Homo sapiens) (UniProt P54803)
UniProt P54803, sequence (P54803 whole entry, looked up): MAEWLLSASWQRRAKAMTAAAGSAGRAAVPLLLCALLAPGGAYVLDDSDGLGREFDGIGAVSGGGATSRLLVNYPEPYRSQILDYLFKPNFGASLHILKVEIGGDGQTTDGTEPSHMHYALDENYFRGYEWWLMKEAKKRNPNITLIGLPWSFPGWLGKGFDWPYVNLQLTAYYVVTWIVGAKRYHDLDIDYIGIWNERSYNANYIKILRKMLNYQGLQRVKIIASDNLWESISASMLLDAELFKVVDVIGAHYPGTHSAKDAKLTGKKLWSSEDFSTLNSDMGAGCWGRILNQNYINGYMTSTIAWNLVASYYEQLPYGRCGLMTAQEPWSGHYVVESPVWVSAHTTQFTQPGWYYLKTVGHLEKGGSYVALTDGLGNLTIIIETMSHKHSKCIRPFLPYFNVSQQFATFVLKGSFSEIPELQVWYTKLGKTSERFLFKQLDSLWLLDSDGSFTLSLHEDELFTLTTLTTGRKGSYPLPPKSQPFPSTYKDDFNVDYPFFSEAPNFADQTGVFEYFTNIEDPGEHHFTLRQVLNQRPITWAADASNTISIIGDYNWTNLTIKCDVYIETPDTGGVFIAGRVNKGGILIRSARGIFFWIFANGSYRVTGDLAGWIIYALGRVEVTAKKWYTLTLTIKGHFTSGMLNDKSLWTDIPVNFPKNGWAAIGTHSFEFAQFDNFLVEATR
Assay: A Novel Cell-Based Assay to Identify Small Molecules for B -Galactocerebrosidase; note: 0% is about no effect; nearly all actives have a fitted effect of over 65% in size
Conditions: 145M-Twi-hGALC-G270D cells (Twitcher mouse brain line with human GALC G270D), HMU-beta-Gal fluorescence, 48 h; series mostly up to 57.5 µM; activation: at the top concentration
Procedure, shortened: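 Live 145M-Twi cells (Twitcher mouse brain-derived, GALC-null) stably expressing human GALC-G270D, with a wild-type GALC line, were compound-treated. Residual GALC activity was then read as fluorescence from 0.1 mM final HMU-β-gal at pH 5.2; higher signal means activation.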

Row | SMILES | activation
1 | COc1ccc(-c2oc3ncn4nc(COc5ccc(Cl)cc5)nc4c3c2-c2ccc(OC)cc2)cc1 | inactive: -17.6%
2 | CCc1ccc(S(=O)(=O)c2cn(C)c3ccc(C)cc3c2=O)cc1 | inactive: -13.1%
3 | CN1CCN(C(=O)C2CCCCC2)CC1 | inactive: -13.1%
4 | COC(=O)c1cc2occc2n1Cc1nc(-c2ccc(Cl)cc2)oc1C | inactive: -1.94%
5 | Cc1ccc(NC(=O)Cn2cc(S(=O)(=O)Cc3ccccc3)c3ccccc32)cc1C | inactive: -7.97%
6 | Cc1ccc(-n2nc(C(=O)N(C)c3ccccc3Cl)c3c4ccccc4n(C)c3c2=O)cc1 | inactive: -24.3%
7 | COc1cc2[nH]c(=O)n(CCCC(=O)N(C)Cc3ccccc3)c(=O)c2cc1OC | inactive: -18.6%
8 | CCc1ccccc1NC(=O)Cn1nc(C)c2nn(-c3ccc(Cl)cc3)c(C)c2c1=O | inactive: -12.2%
9 | CCOC(=O)c1ccc(N2C(=O)c3n[nH]c(C)c3C2c2ccc(CC)cc2)cc1 (configuration not stated) | inactive: -5.06%
10 | CCOCCCNC(=O)CN1C(=O)CCn2nc(-c3cccn3C)cc21 | inactive: -23%
11 | COc1ccc(CN(CCN(C)C)c2ncccn2)cc1 | inactive: -17.8%
12 | COc1ccc(NC(=O)CN2C(=O)C(c3ccccc3)=NC23CCC(C)CC3)cc1Cl (configuration not stated) | inactive: -11.7%
13 | CN(C)S(=O)(=O)N(CC(=O)NCCSCc1ccc(Cl)cc1Cl)c1ccccc1 | inactive: -6.15%
14 | CCOC(=O)C(Cc1ccccc1)NC(=O)Cn1nnc(-c2ccc(C)cc2)n1 (configuration not stated) | inactive: -9.48%
15 | CSc1ccc(CCNC(=O)C2CCCN(S(=O)(=O)N(C)c3ccc(F)cc3)C2)cc1 (configuration not stated) | inactive: -21%
16 | COc1ccc(C(C)C)cc1S(=O)(=O)NCCc1c(C)[nH]c2c(Cl)cccc12 | inactive: -36.2%
17 | C[C@H](NC(=O)OC(C)(C)C)c1nnc(SCc2ccc(Cl)cc2Cl)o1 | inactive: -10.5%
18 | Cc1cccn2c(=O)cc(COc3cccc(NC(=O)Nc4cccc(Cl)c4)c3)nc12 | inactive: 15.3%
19 | CC(C)c1ccc(NC(=O)c2cc(S(=O)(=O)NCCc3ccccc3)ccc2F)cc1 | inactive: -3.6%
20 | COc1ccc(-n2ccnc(NCCc3ccc(S(N)(=O)=O)cc3)c2=O)cc1Cl | inactive: -3.47%
21 | O=C1Cc2cc(S(=O)(=O)Nc3cccc(C(F)(F)F)c3)cc3c2N1CCC3 | inactive: -21.5%
22 | Cc1cc(OC(C)C(=O)N(Cc2ccco2)Cc2ccco2)cc(C)c1Cl (configuration not stated) | inactive: -1.18%
23 | CC(C)c1ccc(NC(=O)[C@H]2O[C@@H]3OC(C)(C)O[C@@H]3[C@H]3OC(C)(C)O[C@H]32)cc1 | inactive: -10.3%
24 | CCN(CC)c1ccc2nc3c(=O)n(C)c(=O)n(C)c3nc2c1 | inactive: -17.3%
25 | Cc1nn(CC(=O)N2CCN(c3ccccc3F)CC2)c(=O)c2cccn12 | inactive: -10.8%
26 | CCOc1ccc(-c2nnc(SCC(=O)NC3CCCCC3)nc2-c2ccc(OCC)c(OC)c2)cc1OC | inactive: -21.4%
27 | CCc1ccc2occ(CC(=O)Nc3nnc(SC)s3)c2c1 | inactive: -13.9%
